We go through 95 compounds from PubChem BioAssay AID485344 (National Center for Advancing Translational Sciences (NCATS), 2010).

Structures are written as SMILES. Screen size: about 340,000 compounds; about 6,900 (2%) were called active. No stated cut-off is given here; in the data, active means inhibition above about 30%; inactive means below that, where a call was filed. The entries are a selection whose mix differs from that of the whole data set. Where no call is shown, the source filed none.

This assay has as its target D(2) dopamine receptor (Homo sapiens) (UniProt P14416). Kind of assay: HTS Assay for Allosteric Antagonists of the Human D2 Dopamine Receptor: Primary Screen for Antagonists. Further: 0% is about no effect. The settings on record: HEK293 TREx D2 cells, calcium flux, dopamine EC80; at 10 µM; stronger effect = higher value. The essentials: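 Calcium flux kinetic readout in an inducible HEK293 TREx D2 line plated overnight at 30 C. After 180 s compound exposure, an EC80 dopamine challenge follows with another 180 s kinetic read to detect antagonism.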
Chain of UniProt P14416 (P14416 whole entry, looked up): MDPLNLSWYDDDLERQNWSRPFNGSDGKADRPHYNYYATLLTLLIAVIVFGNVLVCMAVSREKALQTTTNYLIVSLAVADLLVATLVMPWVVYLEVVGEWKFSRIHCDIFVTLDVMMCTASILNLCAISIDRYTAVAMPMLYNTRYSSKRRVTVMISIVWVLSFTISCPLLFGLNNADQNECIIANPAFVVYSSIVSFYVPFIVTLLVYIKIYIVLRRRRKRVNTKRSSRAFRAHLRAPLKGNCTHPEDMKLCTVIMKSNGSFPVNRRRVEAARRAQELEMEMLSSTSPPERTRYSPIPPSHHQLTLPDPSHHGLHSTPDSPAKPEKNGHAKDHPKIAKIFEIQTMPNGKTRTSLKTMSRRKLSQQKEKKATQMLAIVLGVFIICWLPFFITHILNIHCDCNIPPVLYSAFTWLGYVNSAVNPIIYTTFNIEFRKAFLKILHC
In the case of `CCCn1c(=N)c(C(=O)NCC2CCCO2)cc2c(=O)n3cc(C)ccc3nc21` (stereo not given), the inhibition (usually the relative decrease from the control value, in per cent) came to 1.1%. As for `COCCN(CCOC)S(=O)(=O)c1ccc(C(=O)Nc2sc3c(c2C(N)=O)CCCC3)cc1`, the inhibition was -0.957%.

Turning to `COc1ccc(NC(=O)CSc2nc(C)cc(C)c2C(=O)Nc2ccccc2OC)cc1`, the inhibition is -22.2%.

With `Cc1ccc(CN2CCN(CC3CC4C=CC3C4)CC2)cc1` (stereo not given), the inhibition is active: 65.4%.

Turning to `COc1ccc(S(=O)(=O)NCC(c2ccco2)S(=O)(=O)c2cccs2)cc1F` (stereo not given), the inhibition is 18.1%. In the case of `Cc1ccc(CCNC(=O)C2CCN(S(=O)(=O)c3ccc4c(ccn4C)c3)CC2)cc1`, the inhibition worked out at 1.83%. As to `Cc1ccc(-c2nc3c4c(-c5ccccc5)c(-c5ccccc5)oc4ncn3n2)cc1`, the inhibition came to 14.7%. Consider `CCN1CCN(Cc2ccc(NC(=O)c3ccc(C)c(NC(=O)c4c[nH]c5cc(C(F)(F)F)ccc5c4=O)c3)cc2C(F)(F)F)CC1`, for which the inhibition was active: 36.1%. With `Cc1ccc(CNC(=O)CSc2nc3ccccc3nc2Cc2ccc(C)cc2)cc1` the figure was -2.2%.

For the compound `CCOc1ccc(NC(=O)c2c(C)oc3nc(C)nc(N4CCOCC4)c23)cc1`, the inhibition stood at 1.28%.

Regarding `Cc1oc(-c2ccc(Cl)cc2)nc1Cn1c(=O)cc(C)c2c(C)nn(-c3ccccc3)c21`, the inhibition worked out at 3.36%. As to `COc1ccccc1CNC(=O)CCCCn1c(=O)c2ccccc2n(Cc2ccccc2F)c1=O`, the inhibition is -9.58%. Turning to `CC1=CC(=O)CC2C1(C)CCC(C)C2(C)CCC(C)CC(=O)O` (stereo not given), the inhibition was active: 32.3%.

As to `Cc1nn2cc(-c3ccc(OC(C)C)cc3)nc2s1`, the inhibition was -4.73%. Then `O=C(CCSCc1cccc(Cl)c1)NCCc1ccc(Cl)cc1`, with -18.1%; and `O=C(c1ccccc1)N1CCc2cc(CNS(=O)(=O)c3ccc(Cl)s3)ccc21`, with 1.94%; and `CSc1ccc(/C=N/n2c(C)nnc2C)cc1`, with active: 35.3%.

`COc1ccc(-n2c(SCC(=O)NCc3ccc(F)cc3)nc3c([nH]c4ccccc43)c2=O)cc1`: the inhibition was found to be 6.16%. For the compound `COc1ccc(NC(=O)c2cnc(N3CCCC3)nc2)cc1OC`, the inhibition was -16.2%. Then `CCCC1=Nc2cc(C(=O)N3CCC(C(=O)OCC)CC3)ccc2Sc2ccccc21`, with -8.98%; and `Cc1cccc(NC(=O)C2CCCN2S(=O)(=O)c2ccc3c(c2)n(C)c(=O)c(=O)n3C)c1` (stereo not given), with 9.83%. With `Cc1cc(C)c2oc(-c3cccc(NC(=O)c4ccc(-c5cccc([N+](=O)[O-])c5)o4)c3)nc2c1` the figure was 0.461%.

For `O=C(NCc1cccc(F)c1)c1ccccc1NC(=O)c1nsc2ccccc12`, the inhibition is 4.07%. Then `COc1ccccc1C(=O)N(c1ccc(C)cc1)S(=O)(=O)c1ccc(Cl)cc1`, with 4.94%; and `CCC(=O)N1c2ccccc2CC1C(=O)NCc1cc(Br)ccc1OC` (stereo not given), with -5.08%; and `Cc1ccc2oc3c(c(=O)c2c1)C(c1ccc(O)cc1)N(c1nc(C)c(C)s1)C3=O` (stereo not given), with 20.2%. Regarding `CCC(=O)Nc1nnc(S(=O)(=O)N2c3ccccc3CC2C)s1` (stereo not given), the inhibition worked out at 6.19%.

Turning to `Cc1ccc(CNc2nc3ccccc3n3cnnc23)cc1`, the inhibition was -9.71%. Then `Cc1csc2nc(COC(=O)c3ccc(NC(=O)C(C)Oc4ccccc4)cc3)cc(=O)n12` (stereo not given), with 2%; and `CCc1cccc(C)c1NS(=O)(=O)c1ccc2c(c1)CC(C)N2C(=O)C1CC1` (stereo not given), with 3.52%. Then `COc1ccc(-c2noc(CSc3nc4ccccc4[nH]3)n2)cc1OC`, with 16.8%; and `COc1ccc(S(=O)(=O)NCCc2csc3nc(-c4ccccc4)nn23)cc1OC`, with -21.4%. `Fc1cccc(CSc2ccc(-c3cccs3)nn2)c1`: the inhibition is 12.1%. As for `CCN1C(=O)C(O)(c2c[nH]c3ccccc23)c2cc(Br)ccc21` (stereo not given), the inhibition stood at 10%. Then `Cc1cccc(Cn2c(=O)n(-c3ccccc3C)c(=O)c3c2c2cc(C)ccc2n3C)c1`, with 0.936%. With `Cc1cc(NC(=O)C2C3C(=O)N(CC4CCCO4)C(C(=O)NCc4ccccc4)C34C=CC2(C)O4)no1` (stereo not given), the inhibition was active: 33.5%. For the compound `O=C(C1CCCN(S(=O)(=O)c2cccc3nsnc23)C1)N1CCN(c2cccc(Cl)c2)CC1` (stereo not given), the inhibition stood at 12.1%. As for `Cc1c(/C=C(\C#N)C(=O)NCc2ccccc2)cc(C#N)n1C`, the inhibition was active: 36.5%. Then `CCCN1CCc2nc(N3CCN(C)CC3)ncc2C1`, with -2.61%.

On to `CCN(CC)c1nn2c(=O)c(C(=O)NCCc3cccc(C)c3)cnc2s1`, for which the inhibition is -4.06%. With `COc1ccc(C(=O)Nc2cccc(C(=O)OCc3cc(=O)n4c5c(sc4n3)CCCC5)c2)cc1`, the inhibition was -10.3%. In the case of `COc1cccc(CSc2nc3n(n2)C(CC(C)C)C(C(=O)Nc2ccccc2C)=C(C)N3)c1` (stereo not given), the inhibition is 14.2%. With `Cc1ccc(CCNC(=O)CCCc2nnc3n(C)c(=O)c4sccc4n23)cc1` the figure was 2.92%.

Consider `COc1ccccc1-n1c(=O)n(C)c2c(C(N)=O)nc(-c3cccc(OC)c3OC)nc21`, for which the inhibition is -7.3%.

With `COc1ccc(CCNC(=O)CCc2c(C)nc3cc(-c4cccc(F)c4)nn3c2C)cc1OC`, the inhibition worked out at 13.9%. Then `Cc1ccc(S(=O)(=O)NCCc2nnc3ccc(SCC(=O)Nc4ccc(F)cc4F)nn23)cc1`, with -5.82%; and `CC(C)c1nn2c(=O)cc(COC(=O)c3ccc(NC(=O)c4cccs4)cc3)nc2s1`, with -17.8%; and `CCCOc1ccc(C(=O)N(Cc2ccco2)Cc2ccco2)cc1`, with 4.3%. Then `O=C(NCC(c1cccs1)S(=O)(=O)c1cccs1)c1c(F)cccc1F` (stereo not given), with -19.8%; and `COc1ccc(OC(=O)c2nc(SCc3ccccc3C)ncc2Cl)cc1`, with 5.33%. Consider `Cc1ccccc1OCC(=O)Nc1ccccc1OCc1cc(=O)n2ccccc2n1`, for which the inhibition is -14.1%. Then `CCC(Sc1nc2n[nH]c(C)c2c(=N)n1-c1ccccc1Cl)C(=O)N(CC)CC` (stereo not given), with -12.2%. Then `CCN(CCCNC(=O)Cn1ncc2c([nH]c3ccc(C)cc32)c1=O)c1ccccc1`, with -2.53%; and `N#Cc1cc2c(=O)n3ccccc3nc2n(-c2nnc(SCc3ccccc3Cl)s2)c1=O`, with 3.65%; and `Cc1cccc(NC(=O)c2cc3c(=O)n(Cc4cccnc4)ccc3nc2C)c1`, with 16.8%. Then `COc1ccc(NC(=O)CCn2cnc3onc(-c4ccc(F)cc4)c3c2=O)cc1OC`, with -6.15%; and `Cc1sc2ncnc(NCC(c3ccco3)N3CCCC3)c2c1C` (stereo not given), with active: 32.1%; and `CC1Cn2c(C(=O)NCc3ccccc3Cl)cc3cccc(c32)S1` (stereo not given), with 0.34%. `FC(F)(F)c1cccc(Nc2c3c(nc4ccc(Cl)cc24)CCC3)c1`: the inhibition was -6.78%. Then `CC(NC(=O)c1ccc2c(c1)sc1nc(-c3ccc(F)cc3)cn12)C12CC3CC(CC(C3)C1)C2` (stereo not given), with 10.3%; and `COc1cc(OC)c(NC(=O)CCc2c(C)nc3c4c(C)cc(C)nc4nn3c2C)cc1Cl`, with 2.72%. With `CCCCCN1C(C(=O)c2ccccc2)=C(OC(=O)CC)c2ccccc2S1(=O)=O` the figure was -1.99%; with `COc1cc(NC(=O)C2CCN(S(=O)(=O)c3c(C)noc3/C=C/c3ccccc3F)CC2)cc(OC)c1OC`, -21.8%; with `Cc1ccc(CCNC(=O)c2ccc(Nc3nc4ccccc4n4nnnc34)cc2)cc1`, -4.01%.

With `CCOC(=O)c1c(C)oc2nc(C)nc(NCCCN3CCN(c4cc(C)ccc4C)CC3)c12`, the inhibition turned out to be 14.2%. `CC(C)c1ccc(Nc2c(-c3ccccn3)nc3ccccn23)cc1`: the inhibition came out at 14.4%. With `COc1ccc(-c2nc(CSCC(=O)NCc3ccccc3Cl)c(C)o2)cc1OC` the figure was -15.8%; with `O=C(NCCc1ccc(Cl)cc1)C1CCN(S(=O)(=O)c2ccc3[nH]ccc3c2)CC1`, -1.73%; with `COc1ccc(CCNC(=O)C(=O)NCC(c2cccs2)S(=O)(=O)c2ccc(F)cc2)cc1` (stereo not given), 5.18%. With `COc1ccc(-c2noc(CNC(=O)COc3cccc(C)c3C)n2)cc1` the figure was -10.4%. As to `COc1ccc(N(C(=O)Cn2nnc3ccccc32)C(C(=O)NCc2ccccc2)c2ccc(F)cc2)cc1` (stereo not given), the inhibition is -4.02%. With `Cn1nnc2c(NCc3c(F)cccc3F)ncnc21` the figure was -8.22%; with `COc1ccc(CCNC(=O)c2cc(=O)c3cc(C)c(C)cc3o2)cc1OC`, -14.4%. On to `COc1ccc(N2CCN(Cc3nc4c(c(=O)[nH]c(=O)n4C)n3Cc3ccccc3F)CC2)cc1`, for which the inhibition came out at 12.1%.

For `c1ccc(CN2CCC(Nc3nc(-c4cccnc4)nc4ccccc34)CC2)cc1`, the inhibition is active: 49.4%.

For `CCc1ccc(C(=O)CC2(O)C(=O)N(CCc3ccccc3)c3ccc(Cl)cc32)cc1` (stereo not given), the inhibition is -1.5%.

`Cn1c(=O)c2c(nc(SCC(=O)Nc3ccc(F)c(F)c3)n2Cc2ccccc2F)n(C)c1=O`: the inhibition was -12.4%. `CNC(=O)C1CCC(Cn2c(=O)c3sccc3n(CC(=O)N3CCC(C)CC3)c2=O)CC1` (stereo not given): the inhibition is -0.866%. `Cc1ccc(-n2ncc(C(=O)NCc3ccco3)c2C2CCN(C(=O)OC(C)(C)C)CC2)cc1`: the inhibition was -5.68%. As for `Cc1ccc2nc(Cl)c3cc(C(=O)N4CCCCC4)sc3c2c1`, the inhibition was -4.08%. As to `Cn1c(=O)c2c(-c3ccc(Cl)cc3)n(CCc3ccccc3)cc2n(C)c1=O`, the inhibition was -21.2%. `COC(=O)c1cc(S(=O)(=O)NCC2CCN(Cc3cccc(F)c3)CC2)cn1C`: the inhibition was -1.64%. Then `Cc1cc(C)c(Cn2c(=O)n(CCCC(=O)NCc3ccc4c(c3)OCO4)c(=O)c3sccc32)c(C)c1`, with -15%. As to `Cc1cc(C)c(NC(=O)Cn2c(=O)n(Cc3ccc4c(c3)OCO4)c(=O)c3ccccc32)c(C)c1`, the inhibition is -4.01%. With `CCC1=Nc2cc(C(=O)NCc3ccccc3Cl)ccc2Sc2ccc(C)cc21`, the inhibition came to 26.9%. With `COc1ccc(CCNC(=O)c2cc3sc(Cl)cc3n2C)cc1OC` the figure was active: 63%; with `COC(=O)c1cccc(Nc2c(-c3ccc(OC)cc3)nc3nc[nH]n23)c1`, 18.7%; with `CC(C)NS(=O)(=O)c1ccc(OCC(N)=O)c(Cl)c1`, active: 33.6%. For `Cc1ccc(C)c(NC(=O)Cn2nnc(C(=O)NCCc3ccccc3)c2N)c1`, the inhibition was found to be 3.55%.

`CCOc1ccc(C(C)=O)cc1CN1C(=O)c2ccccc2S1(=O)=O`: the inhibition was active: 34%. Turning to `CCCc1nc2nc(C)c(NS(=O)(=O)c3ccc(F)cc3)c(=O)n2[nH]1`, the inhibition is 1.34%.

Consider `Cc1cc(C(=O)N2CCN(c3ccc(F)cc3)CC2)c2c(C)nn(-c3cccc(Cl)c3C)c2n1`, for which the inhibition was -3.32%. Regarding `CCc1ccc(S(=O)(=O)c2cnc3ccc(OC)cc3c2N2CCCC(C)C2)cc1` (stereo not given), the inhibition came to 11.4%. Then `COc1cc(OC)c2c(C)c(CC(=O)NCCc3ccccc3OC)c(=O)oc2c1`, with 7.65%; and `COc1ccc(CNC(=O)Cn2c(=O)nc(-c3ccccc3F)c3cc(Cl)ccc32)cc1OC`, with 17.1%.
